Results published in the supplement of paper PMC12355420.
Where a name gives a salt, the structure may show the parent alone. Some of the results follow. Many values rest on one well or one pass, so single values are uncertain.

tested on: HeLa VPS33A KO + NLuc-VPS33A R498W; assay: relative mutant VPS33A R498W amount (NanoLuc luminescence) vs DMSO (fraction of DMSO); HeLa model of a glycosaminoglycan (GAG) storage disease; KI is knock-in and KO knock-out; SDC1 is syndecan 1; higher = higher mutant VPS33A level; settings: 50 µM; 24 h
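Also: screen of an FDA-approved drug library, NanoLuc luminescence read after lysing the treated cells, taken as a measure of mutant VPS33A protein stability.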

SMILES	relative mutant VPS33A R498W amount
C=C[C@]1(C)C[C@@H](OC(=O)CS[C@@H]2C[C@H]3CC[C@@H](C2)N3C)[C@]2(C)[C@H](C)CC[C@]3(CCC(=O)[C@H]32)[C@@H](C)[C@@H]1O [Retapamulin]	1.11
CCCCCCCN(CC)CCCC(O)c1ccc(NS(C)(=O)=O)cc1 (configuration not stated) [Ibutilide Fumarate]	0.981
CC(C)(C)NCC(O)c1ccc(O)c(CO)c1 (configuration not stated) [Salbutamol Sulfate]	1.05
CC(C)c1nc(N(C)S(C)(=O)=O)nc(-c2ccc(F)cc2)c1/C=C/[C@@H](O)C[C@@H](O)CC(=O)O [Rosuvastatin]	2.92
CC(=O)[C@H]1CC[C@H]2[C@@H]3C=CC4=CC(=O)CC[C@@]4(C)[C@@H]3CC[C@]12C [Dydrogesterone]	1.01
CC(=O)Oc1cc(C(F)(F)F)ccc1C(=O)O [Triflusal]	1.17
c1cc(CN2CCCNCCNCCCNCC2)ccc1CN1CCCNCCNCCCNCC1 [Plerixafor (AMD3100)]	0.82
Nc1ccn([C@@H]2CS[C@H](CO)O2)c(=O)n1 [Lamivudine]	0.937
C[C@@H]1CC(=O)NN=C1c1ccc(NN=C(C#N)C#N)cc1 [Levosimendan]	1.33
C(=C\c1ccccc1)/CN1CCN(C(c2ccccc2)c2ccccc2)CC1 [Cinnarizine]	0.939
C[C@@](Cc1ccc(O)c(O)c1)(NN)C(=O)O [Carbidopa]	3.43
CC[C@H](Nc1ncnc2[nH]cnc12)c1nc2cccc(F)c2c(=O)n1-c1ccccc1 [CAL-101 (Idelalisib, GS-1101)]	0.533
